Experimental data reported in patent publication US20190218277A1 (Chugai, published 2019).

Key:
mouse FcγRIV = biological target: T1, mouse FcγRIV (mouse, UniProt A0A0B4J1G0 21-203); assay: SPR (Biacore T200, pH 7.4, 25 °C): His-tagged FcγR captured by anti-His antibody; antibody injected at 100 nM alone (Ab alone) or as 1:1 complex with trimeric CD154 (CD154 IC); binding level / capture level [D]
T1 construct: also called mFcγRIV; mouse FcγR4
T1 sequence: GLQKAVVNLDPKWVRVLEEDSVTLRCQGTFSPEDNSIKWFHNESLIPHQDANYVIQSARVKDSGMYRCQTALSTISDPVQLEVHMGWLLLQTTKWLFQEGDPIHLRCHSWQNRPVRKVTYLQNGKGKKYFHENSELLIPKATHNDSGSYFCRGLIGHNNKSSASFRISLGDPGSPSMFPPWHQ

human FcγRIIIa (158F) = biological target: T2, human FcγRIIIa (158F) (human, UniProt P08637 in part); assay: SPR (Biacore T200, pH 7.4, 25 °C): His-tagged FcγR captured by anti-His antibody; antibody injected at 100 nM alone (Ab alone) or as 1:1 complex with trimeric CD154 (CD154 IC); binding level / capture level [E]
Sequence of human FcγRIIIa (158F) (P08637 other isoform, or with tags, fused parts or gaps limits assumed): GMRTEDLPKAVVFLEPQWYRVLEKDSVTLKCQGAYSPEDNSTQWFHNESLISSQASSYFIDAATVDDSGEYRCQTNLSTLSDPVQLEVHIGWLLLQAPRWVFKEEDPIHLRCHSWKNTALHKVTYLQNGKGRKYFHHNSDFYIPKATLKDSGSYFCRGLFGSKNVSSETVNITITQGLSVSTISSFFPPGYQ
T2 construct: also called human FcγR3a allelic variant 158F

human FcγRIa = biological target: T3, human FcγRIa (human, UniProt P12314 16-292); assay: SPR (Biacore T200, pH 7.4, 25 °C): His-tagged FcγR captured by anti-His antibody; antibody injected at 100 nM alone (Ab alone) or as 1:1 complex with trimeric CD154 (CD154 IC); binding level / capture level [A]
Sequence of human FcγRIa (P12314 16-292 limits assumed): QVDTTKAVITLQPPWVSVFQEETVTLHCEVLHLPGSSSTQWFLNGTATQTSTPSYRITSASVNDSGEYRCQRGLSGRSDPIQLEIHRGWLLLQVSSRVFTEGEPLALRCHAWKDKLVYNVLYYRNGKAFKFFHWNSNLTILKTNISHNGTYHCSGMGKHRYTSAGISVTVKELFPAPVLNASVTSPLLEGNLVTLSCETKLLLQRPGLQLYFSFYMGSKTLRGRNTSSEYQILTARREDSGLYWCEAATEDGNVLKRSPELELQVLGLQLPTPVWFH
T3 construct: also called human FcγR1a

human FcγRIIIa (158V) = biological target: T4, human FcγRIIIa (158V) (human, UniProt P08637 in part); assay: SPR (Biacore T200, pH 7.4, 25 °C): His-tagged FcγR captured by anti-His antibody; antibody injected at 100 nM alone (Ab alone) or as 1:1 complex with trimeric CD154 (CD154 IC); binding level / capture level [F]
Sequence of human FcγRIIIa (158V) (P08637 other isoform, or with tags, fused parts or gaps limits assumed): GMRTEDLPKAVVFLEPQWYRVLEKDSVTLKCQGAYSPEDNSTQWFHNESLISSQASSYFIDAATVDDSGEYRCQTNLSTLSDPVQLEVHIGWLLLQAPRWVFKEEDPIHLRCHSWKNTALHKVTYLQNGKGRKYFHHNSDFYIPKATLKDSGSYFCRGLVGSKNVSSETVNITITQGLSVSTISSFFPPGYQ
T4 construct: also called human FcγR3a allelic variant 158V

Measured: binding result

B1: Anti-CD154 antibody (SLAPH0336a/SLAPL0336a) with Fc variant KAES (SG1109) (antibody, human IgG1, kappa)
heavy: EVQLVESGGGSVKPGGSLKLSCAASGFTFSDHYMYWVRQTPEKRLEWVAIISGGGSYTSYPDSMKGRFTISRDNAKNILHLQMSSLKSEDTAMYYCTRESNGKPGFAYWGQGTLVTVSAASTKGPSVFPLAPSSKSTSGGTAALGCLVKDYFPEPVTVSWNSGALTSGVHTFPAVLQSSGLYSLSSVVTVPSSSLGTQTYICNVNHKPSNTKVDKRV[human IgG1 Fc with K326A E333S (EU numbers) omitted here]
light: DIELTQSPTSLAVSLGQRATISCKASQSVDYAGDSYMNWYQQKPGQPPKLLIYAASNLESGIPARFSASGSGTDFTLNIHPVEEEDAATYYCQQSYEDPWTFGGGTKLEIKRTVAAPSVFIFPPSDEQLKSGTASVVCLLNNFYPREAKVQWKVDNALQSGNSQESVTEQDSKDSTYSLSSTLTLSKADYEKHKVYACEVTHQGLSSPVTKSFNRGEC
binds: all assays above

B2: Anti-CD154 antibody (SLAPH0336a/SLAPL0336a) with Fc variant KWES (SG1085) (antibody, human IgG1, kappa)
heavy: EVQLVESGGGSVKPGGSLKLSCAASGFTFSDHYMYWVRQTPEKRLEWVAIISGGGSYTSYPDSMKGRFTISRDNAKNILHLQMSSLKSEDTAMYYCTRESNGKPGFAYWGQGTLVTVSAASTKGPSVFPLAPSSKSTSGGTAALGCLVKDYFPEPVTVSWNSGALTSGVHTFPAVLQSSGLYSLSSVVTVPSSSLGTQTYICNVNHKPSNTKVDKRV[human IgG1 Fc with K326W E333S (EU numbers) omitted here]
light: DIELTQSPTSLAVSLGQRATISCKASQSVDYAGDSYMNWYQQKPGQPPKLLIYAASNLESGIPARFSASGSGTDFTLNIHPVEEEDAATYYCQQSYEDPWTFGGGTKLEIKRTVAAPSVFIFPPSDEQLKSGTASVVCLLNNFYPREAKVQWKVDNALQSGNSQESVTEQDSKDSTYSLSSTLTLSKADYEKHKVYACEVTHQGLSSPVTKSFNRGEC
binds: all assays above
